Data reported in PMC4336329 (PLoS ONE, 2015).
Hit rate of the full screen: of about 310,000 compounds, about 14,000 (4.5%) showed an effect of 50% or more. The effect is printed as a negative number. The list shows a part of the results.

Target: human ether-à-go-go-related gene (hERG) potassium channel (human, UniProt Q12809)
Assay: primary screen, population patch clamp on CHO cells stably expressing hERG
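Note: peak tail current of the secondary pulse compared with the same well before compound.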

Chain of human ether-à-go-go-related gene (hERG) potassium channel (Q12809 whole entry, looked up): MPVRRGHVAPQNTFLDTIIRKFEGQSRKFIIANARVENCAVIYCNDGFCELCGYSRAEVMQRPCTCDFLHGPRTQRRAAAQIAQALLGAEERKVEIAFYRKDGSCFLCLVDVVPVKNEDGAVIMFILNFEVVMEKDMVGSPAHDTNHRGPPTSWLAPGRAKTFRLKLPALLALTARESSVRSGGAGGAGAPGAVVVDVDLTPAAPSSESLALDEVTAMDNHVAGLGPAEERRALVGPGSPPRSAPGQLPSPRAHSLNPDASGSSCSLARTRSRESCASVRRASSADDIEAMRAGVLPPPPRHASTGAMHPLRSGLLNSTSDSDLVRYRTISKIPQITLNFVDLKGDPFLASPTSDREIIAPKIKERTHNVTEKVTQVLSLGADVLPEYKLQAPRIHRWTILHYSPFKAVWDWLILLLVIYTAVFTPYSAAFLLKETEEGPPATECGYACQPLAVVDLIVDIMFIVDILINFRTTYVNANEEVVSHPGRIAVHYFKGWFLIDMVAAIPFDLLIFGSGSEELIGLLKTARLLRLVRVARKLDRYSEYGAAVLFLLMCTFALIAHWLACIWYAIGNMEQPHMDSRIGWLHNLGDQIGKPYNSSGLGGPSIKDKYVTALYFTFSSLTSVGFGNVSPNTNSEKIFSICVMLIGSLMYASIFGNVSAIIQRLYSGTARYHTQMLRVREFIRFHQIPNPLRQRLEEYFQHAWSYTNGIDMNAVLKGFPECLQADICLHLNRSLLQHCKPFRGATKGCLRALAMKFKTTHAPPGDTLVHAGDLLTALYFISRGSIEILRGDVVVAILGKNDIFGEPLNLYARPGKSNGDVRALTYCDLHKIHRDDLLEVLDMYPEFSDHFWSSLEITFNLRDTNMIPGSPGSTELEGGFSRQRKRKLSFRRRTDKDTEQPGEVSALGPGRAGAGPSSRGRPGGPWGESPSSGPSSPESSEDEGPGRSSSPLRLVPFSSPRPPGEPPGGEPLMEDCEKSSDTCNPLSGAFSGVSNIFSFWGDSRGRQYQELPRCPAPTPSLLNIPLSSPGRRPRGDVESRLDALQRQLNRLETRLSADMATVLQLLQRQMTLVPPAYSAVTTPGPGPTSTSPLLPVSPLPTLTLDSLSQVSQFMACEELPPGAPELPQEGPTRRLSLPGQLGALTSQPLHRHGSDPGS

Structure (SMILES)	hERG current change (%, negative = inhibition) at 10uM [%]
Cc1nc2cc(C(=O)O)ccc2n1-c1ccc(F)cc1F	8.5
O=C1NC(=Nc2ccccc2Cl)S/C1=C\c1cc([N+](=O)[O-])ccc1O	5.25
COc1ccccc1NC(=O)CN(Cc1ccco1)C(=O)c1cc2ccccc2o1	-28.7
N#C/C(=C\c1cccnc1)c1ccc([N+](=O)[O-])cc1	-56.3
CCN(CC)C(=O)CSc1nc2cc(S(=O)(=O)N3CCOCC3)ccc2n1CC	5.94
COc1ccc(NC2=C3CC(C)CC=C3N(c3ccc(OC)cc3)C2=O)cc1 (stereo not shown)	-2.77
N#CCc1nc(CSc2nc3ccccc3s2)cs1	-2.16
Cc1cccc(NC(=O)CN2C(=O)NC(C)(c3ccc4c(c3)OCO4)C2=O)c1 (stereo not shown)	-22.7
CN(C(=O)c1nn(C)c2c1CSc1ccccc1-2)c1ccc(F)cc1	0.0295
Cc1sc(NC(=O)CCC(=O)O)c(C(N)=O)c1-c1ccccc1	4.38
Cc1ccc(/C=N/NC(=O)Cc2cccs2)o1	4.51
NC(=O)Cn1cc(C(=O)c2cccs2)c2ccccc21	-2.95
CNc1c(NS(=O)(=O)c2ccc3c(c2)CCCC3)c(=O)oc2ccccc12	18.3
Cc1ccc(C(=O)Nc2nnc(COc3ccccc3)s2)cc1	3.6
COc1ccc(/C=C(/NC(C)=O)C(=O)O)cc1	2.12
CCOC(=O)N1CCC(NC(=O)CCS(=O)(=O)c2ccc3c(c2)CCN3C(C)=O)CC1	3.21
O=C1CCc2cc(S(=O)(=O)NC(Cc3ccccc3)C(=O)N3CCN(c4ccccn4)CC3)ccc2N1 (stereo not shown)	-3.54
S=C(Nc1cccnc1)Nc1ccccc1Br	91.1
CCOC(=O)C1(Cc2ccccc2C(F)(F)F)CCN(CCCn2cccn2)CC1	-82.1
O=C(OCc1nc2ccccc2[nH]1)C1CCCCC1	2.85
O=c1[nH]c(=O)n(CCc2ccccc2)c(O)c1/C=N/N1CCOCC1	7.29
CCCCC(=O)Nc1ccc2oc(-c3ccncc3)nc2c1	-22.8
COc1ccc(C(C(=O)NC2CCCC2)N(C(=O)c2snc(-c3ccc(F)cc3)c2N)c2ccc(OC)cc2)cc1 (stereo not shown)	-9.51
Cc1ccc2nc(C)cc(C(=O)OCC(=O)Nc3cccnc3Cl)c2c1	-15.4
CCN1CCN(c2ccc(N=Cc3ccc(O)cc3O)cc2)CC1	-4.58
CC(=O)Nc1ccc(S(=O)(=O)N(C)CC(=O)OCC(=O)NCc2ccco2)cc1	-6.79
CCOc1ccc(S(=O)(=O)N(CC)CC)cc1N	19.2
Cc1cccc2c1OCC/C2=N\NC(=O)COc1ccccc1	16

Structure (SMILES)	hERG current change (%, negative = inhibition) at 10uM [%]
Cc1nc([N+](=O)[O-])c(C(=O)OCc2cccc(Br)c2)n1C	-22.2
O=C(NC1CC2CCCC(C1)N2Cc1ccccc1)c1ccc([N+](=O)[O-])cc1 (stereo not shown)	-81
CN1C(C(=O)NCc2cccs2)=CC(c2ccc(F)cc2)=NS1(=O)=O	-39.4
O=C(Nc1ccc(N2CCCC2=O)cc1)c1cccc(F)c1	-11
COc1cccc(OC)c1C(=O)Nc1ccccc1C(=O)N1CCOCC1	5.4
O=C(Nc1ccncc1)c1ccc(NS(=O)(=O)c2cccc(F)c2)cc1	3.24
CCc1cccc(C)c1NC(=O)COC(=O)CC1CCCC1	9.2
COC(=O)[C@@H]1C[C@@]2(O)[C@@H](O)[C@@H](O)[C@@H](O)C[C@H]2N1Cc1ccc(-c2ccccc2)cc1	-7.43
COc1ccc(C(CNC(=O)CNC(=O)c2ccc(F)cc2)N2CCCC2)cc1 (stereo not shown)	-18.1
CCn1c(COc2ccc(=O)n(-c3ccccc3)n2)nnc1SCc1ccc(C)cc1	-59.9
O=C(COC(=O)C12CC3CC(CC(O)(C3)C1)C2)Nc1ccc(Br)cc1F	-21.5
COc1ccc(-n2c(SCC(=O)Nc3ccc(C)cc3)nc(O)c(Cc3ccccc3)c2=O)cc1	14.6
CCC(O)(CC)C(=O)NN(C(=O)Nc1csc2c1CCCC2)c1ccccc1	24.2
COc1ccc(N(C(=O)c2cccnc2)S(=O)(=O)c2ccccc2)cc1	-39.6
N#CC(C#N)=c1ccc2c(c1)NC1(CCCCC1)N=2	3.2
Cc1nn(C)c(C)c1CN(C(=O)C1CCC(=O)N(C2CCCCCC2)C1)C(C)C (stereo not shown)	10
CNS(=O)(=O)c1cccc(C(=O)OC2CCCCC2=O)c1 (stereo not shown)	23.8
OCc1ccc(O)c2ncccc12	1.44
C/C(=N/OC(=O)C1CC1c1ccccc1)c1ccccc1 (stereo not shown)	11.6
COCCCNc1nc2ccccc2nc1NS(=O)(=O)c1ccc(C)cc1	-8.35
CCOC(=O)Nc1ccc(NC(=O)c2c(OC)cccc2OC)cc1	11.1
COCCCNC(=O)CCn1c(=O)c2ccccc2n(Cc2cccc([N+](=O)[O-])c2)c1=O	-44.7
COC(=O)c1ccc(C2NC(=O)CCC2[N+](=O)[O-])cc1 (stereo not shown)	10.2
COCCCC1CCN(Cc2nc(Cc3ccccc3Cl)no2)CC1	5.07
CCc1cc(C(=O)O)c(NC(=O)C(c2ccccc2)c2ccccc2)s1	18
CC(C)N(Cc1nnc(-c2ccc(Cl)cc2)o1)C(=O)c1cc2ccccc2o1	-40.1
Cc1ccnc(NS(=O)(=O)c2ccc(NC(=O)c3ccc4c(c3)OCCO4)cc2)n1	40.4
